In the supplement of paper PMC8792480:
This is one part of the list. Single values are uncertain, as repeats are few or missing.

Experiments:
[1] = system: NCI-H460; assay: cell-surface PD-L1 MFI ratio relative to radiation alone (isotype-subtracted); higher = higher PD-L1 surface expression; conditions: inducer: radiation 8 Gy; 10 µM; 24 h
Procedure: (§1)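 A549 and H460 NSCLC cells were treated with each library drug at 10 uM, then with radiation (8 Gy) or cisplatin (4 uM), and incubated for 24 h. Cell-surface PD-L1 was measured by flow cytometry as an MFI ratio: (MFI drug+inducer - MFI isotype)/(MFI inducer alone - MFI isotype). Hits were defined as ratio < 0.75.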

[2] = system: A549; assay: cell-surface PD-L1 MFI ratio relative to cisplatin alone (isotype-subtracted); higher = higher PD-L1 surface expression; conditions: inducer: cisplatin 4 uM; 10 µM; 24 h
Procedure: as §1

[3] = system: NCI-H460; assay: as above; conditions: inducer: cisplatin 4 uM; 10 µM; 24 h
Procedure: as §1
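Throughout, for cell-surface PD-L1 MFI ratio relative to radiation alone (isotype-subtracted): surface PD-L1 on NSCLC cells stained with a PE-labelled anti-human PD-L1 antibody before flow cytometry, screening a library of roughly two hundred mostly kinase and epigenetic inhibitors.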

SMILES | cell-surface PD-L1 MFI ratio [1] | cell-surface PD-L1 MFI ratio [2] | cell-surface PD-L1 MFI ratio [3]
COCCOc1nc(-c2ccc(Cl)c(Cl)c2)n(-c2ccc(NC(=O)CCl)cc2)n1 [MI-2 (MALT1 inhibitor)] | inactive: 1.2 | inactive: 0.862 | inactive: 1.13
N[C@@H]1CCCN(c2c(/C=C3\SC(=O)NC3=O)cccc2-c2ccccc2)C1 | inactive: 1.04 | inactive: 1.41 | inactive: 1.33
Cc1ccccc1C(=O)N1CCc2cc(-c3nc(NC(=O)Cc4ccc5c(c4)OCO5)sc3C)ccc21 | inactive: 1.04 | inactive: 1.15 | inactive: 1.74
CC(C)CCN1c2nc(Nc3cc(F)c(O)c(F)c3)ncc2N(C)C(=O)C1C (centres undefined) | inactive: 1.62 | inactive: 20.1 | inactive: 1.4
O=C(/C=C/N1C[C@H]2C[C@@H]1CN2c1ccccn1)c1ccccc1O | inactive: 0.929 | active: 0.38 | active: 0.636
CCCCCCCCCCCCCC(=S)NCCCC[C@H](NC(=O)OCc1ccccc1)C(=O)Nc1ccccc1 [Thiomyristoyl] | inactive: 1.07 | active: 0.423 | active: 0.523
C[C@@H](Oc1cc(-c2cnn(C3CCNCC3)c2)cnc1N)c1c(Cl)ccc(F)c1Cl | inactive: 1.14 | inactive: 1.43 | inactive: 1.5
Cc1nc(NC(=O)N2CCC[C@H]2C(N)=O)sc1-c1ccnc(C(C)(C)C(F)(F)F)c1 [Alpelisib (BYL719)] | active: 0.69 | active: 0.462 | active: 0.474
O=C(O)C(Cc1ccccc1[N+](=O)[O-])=NNc1nc(-c2ccc(Cl)c(Cl)c2)cs1 (mixture of isomers) | inactive: 1.13 | inactive: 1.68 | inactive: 1.06
CO[C@H]1C[C@@H]2CC[C@@H](C)[C@@](O)(O2)C(=O)C(=O)N2CCCC[C@H]2C(=O)O[C@H]([C@H](C)C[C@@H]2CC[C@@H](O)[C@H](OC)C2)CC(=O)[C@H](C)/C=C(\C)[C@@H](O)[C@@H](OC)C(=O)[C@H](C)C[C@H](C)/C=C/C=C/C=C/1C [Rapamycin (Sirolimus)] | inactive: 1.1 | inactive: 0.774 | inactive: 1.19
CN1CCN(c2ccc(-c3cccc(CN4CCOCC4)c3)cc2NC(=O)c2c[nH]c(=O)cc2C(F)(F)F)CC1 | inactive: 1.02 | inactive: 0.773 | inactive: 0.976
CCN(CC)CCNC(=O)c1c(C)[nH]c(/C=C2\C(=O)Nc3ccc(-c4csc(-c5ccccc5)n4)cc32)c1C [Amcasertib (BBI503)] | inactive: 3.6 | inactive: 6.29 | inactive: 4.21
CN1c2ccccc2C(=O)Nc2cnc(Nc3ccc(N4CCC(O)CC4)cc3)nc21 | inactive: 1.51 |  | inactive: 1.95
Cc1ccc(-c2cc(C(F)(F)F)nn2-c2ccc(S(N)(=O)=O)cc2)cc1 [Celecoxib] | inactive: 1.43 | active: 0.591 | inactive: 1.1
Cc1[nH]c2ccc(F)cc2c1-c1nc2c3cccnc3c3ncccc3c2[nH]1 | inactive: 1.2 | active: 0.653 | inactive: 0.92
COc1ccc(CCc2nc3cc(-c4c(C)noc4C)ccc3n2C[C@H](C)N2CCOCC2)cc1Cl | inactive: 0.923 |  | inactive: 0.848
COc1ccc(S(=O)(=O)N(CCO)c2ccccc2CN(C)C/C=C/c2ccc(Cl)cc2)cc1 [KN-93 Phosphate] | inactive: 0.976 |  | inactive: 1.39
CCCCCCCCc1ccc(CCC(N)(CO)CO)cc1 [Fingolimod] | inactive: 0.768 |  | inactive: 1.07
COc1cc(N2CCN(C)CC2)ccc1Nc1nccc(-c2cn(C)c3cnccc23)n1 | inactive: 1.06 |  | inactive: 1.07
NC1(c2ccc(-c3nc4ccn5c(=O)[nH]nc5c4cc3-c3ccccc3)cc2)CCC1 | inactive: 1.42 |  | inactive: 1.19
COc1cc(Br)c(Nc2nc(-c3c(C)nc4ncccn34)cs2)c(Br)c1 | inactive: 1.04 |  | inactive: 0.766
C=CCn1c(=O)c2cnc(Nc3ccc(N4CCN(C)CC4)cc3)nc2n1-c1cccc(C(C)(C)O)n1 [Adavosertib (MK-1775)] | inactive: 1.24 |  | inactive: 1.14
C[C@]1(O)C[C@@H](c2nc(-c3ccc4ccc(-c5ccccc5)nc4c3)c3c(N)nccn32)C1 [Linsitinib (OSI-906)] | inactive: 1.15 |  | inactive: 1.42
COc1cc2nc(N3CCCN(C)CC3)nc(NC3CCN(Cc4ccccc4)CC3)c2cc1OC | inactive: 1.95 |  | inactive: 1.26
CCN(c1cc(-c2ccc(CN3CCOCC3)cc2)cc(C(=O)NCc2c(C)cc(C)[nH]c2=O)c1C)C1CCOCC1 [Tazemetostat (EPZ-6438)] | inactive: 0.839 |  | inactive: 0.968
Oc1ccc(Nc2nc(-c3ccc(Cl)cc3)cs2)cc1 | inactive: 1.26 |  | active: 0.614
N#CC1(c2ccc(NC(=O)c3cccnc3NCc3ccncc3)cc2)CCCC1 [Apatinib] | inactive: 1.67 |  | inactive: 1.63
COc1cc2nccc(Oc3ccc(NC(=O)NC4CC4)c(Cl)c3)c2cc1C(N)=O [Lenvatinib] | inactive: 1.25 |  | inactive: 1.23

SMILES | cell-surface PD-L1 MFI ratio [1] | cell-surface PD-L1 MFI ratio [2] | cell-surface PD-L1 MFI ratio [3]
Cc1ccc(S(=O)(=O)OCC(=O)Nc2ccc(C(=O)O)c(O)c2)cc1 | inactive: 1.25 |  | inactive: 1.13
Cc1cccc(CC(=O)N2CCc3c2ccc(-c2cn(C)c4ncnc(N)c24)c3F)n1 | inactive: 1.12 |  | inactive: 1.28
CN1C(=O)c2sccc2N(C)c2nc(Nc3ccc(S(N)(=O)=O)cc3)ncc21 | inactive: 0.881 |  | inactive: 0.984
Nc1ccc2ncnc(NCCc3ccc(Oc4ccccc4)cc3)c2c1 | inactive: 1.68 |  | inactive: 1.56
CC1(C)C(=O)N(CCN2CCC(C(=O)c3ccc(F)cc3)CC2)c2ccccc21 | inactive: 1.15 |  | inactive: 1.37
NC(=O)C1CCCc2c1[nH]c1ccc(Cl)cc21 (centres undefined) [Selisistat (EX 527)] | inactive: 2.07 |  | inactive: 1.02
CNC(=O)c1cc(Oc2ccc(NC(=O)Nc3ccc(Cl)c(C(F)(F)F)c3)c(F)c2)ccn1 [Regorafenib] | inactive: 1.1 |  | inactive: 0.84
CNC(=O)c1cc(Oc2ccc3nc(N[C@@H]4CCCC[C@H]4O)sc3c2)ccn1 | inactive: 1.19 |  | inactive: 1.39
CC(=O)c1cnc2ccc(-c3cc(Cl)c(O)c(Cl)c3)nc2c1N[C@H]1CC[C@H](CN(C)C)CC1 | inactive: 1.08 |  | inactive: 1.3
CC(C)(C)c1cc(NC(=O)Nc2ccc(-c3cn4c(n3)sc3cc(OCCN5CCOCC5)ccc34)cc2)no1 [Quizartinib (AC220)] | inactive: 1.03 |  | inactive: 1.25
COc1cc2nccc(Oc3ccc(NC(=O)C4(C(=O)Nc5ccc(F)cc5)CC4)cc3)c2cc1OC [Cabozantinib] | inactive: 1.21 |  | inactive: 1.06
COc1ccc(N2C(=O)/C(=C\c3ccc([N+](=O)[O-])s3)SC2=S)cc1 | inactive: 1.07 |  | inactive: 3.23
C=CC(=O)N1CCC[C@@H](n2nc(-c3ccc(Oc4ccccc4)cc3)c3c(N)ncnc32)C1 [Ibrutinib] | inactive: 1.4 |  | inactive: 1.65
CC(C)(C)C[C@@H]1N[C@@H](C(=O)N[C@H]2CC[C@H](O)CC2)[C@H](c2cccc(Cl)c2F)[C@]12C(=O)Nc1cc(Cl)ccc12 | inactive: 1.1 |  | active: 0.63
O=C(N/N=C/c1ccc(O)c(O)c1)c1cc2ccccc2cc1O [Dynasore] | inactive: 1.11 |  | inactive: 0.792
CCN(CC)CCNC(=O)c1c(C)[nH]c(/C=C2\C(=O)Nc3ccc(F)cc32)c1C [Sunitinib] | inactive: 20.3 |  | inactive: 17.7
C[C@@H]1CCN(C(=O)CC#N)C[C@@H]1N(C)c1ncnc2[nH]ccc12 | inactive: 0.881 |  | inactive: 1.33
C[C@@H]1COCCN1c1cc(C2([S@](C)(=N)=O)CC2)nc(-c2cc[nH]c3nccc2-3)n1 | inactive: 1.09 |  | inactive: 1.32
CN(C)Cc1cccc(N=C(c2ccccc2)c2c(O)[nH]c3cc(C(=O)N(C)C)ccc23)c1 | inactive: 1.26 |  | inactive: 0.944
Cc1cc(Nc2cc(N3CCN(C)CC3)nc(Sc3ccc(NC(=O)C4CC4)cc3)n2)n[nH]1 [Tozasertib (VX-680, MK-0457)] | inactive: 1.54 |  | active: 0.706
O=C(O)c1ccc2c(c1)nc(Nc1cccc(Cl)c1)c1ccncc12 [Silmitasertib (CX-4945)] | inactive: 0.78 |  | inactive: 0.824
CC(C)Oc1ccc(C(=O)N[C@H](CNC(=O)CN(C)C)Cc2ccc(-c3cn4cccc([C@H](C)O)c4n3)cc2)cc1Cl | inactive: 1.99 |  | inactive: 0.832
CC(=O)c1c(C)c2cnc(Nc3ccc(N4CCNCC4)cn3)nc2n(C2CCCC2)c1=O | inactive: 0.863 |  | inactive: 1.16
Cc1ccc(CNc2ncnc3ccc(-c4ccc(CO)o4)cc23)o1 | inactive: 1.18 |  | inactive: 1.04
Cc1cn(CCN2CCN(c3ccccc3-c3cc(C#N)cc(C(=O)NCCCN4CCCC4)c3)CC2)c2ccccc12 | inactive: 1.48 |  | inactive: 1.74
C[C@H](NC(=O)c1c(N)nn2cccnc12)c1cc2cccc(C#Cc3cnn(C)c3)c2c(=O)n1-c1ccccc1 | inactive: 0.845 |  | inactive: 1.25
COc1cc(Nc2ncc3c(n2)-c2ccc(Cl)cc2C(c2c(F)cccc2OC)=NC3)ccc1C(=O)O [Alisertib (MLN8237)] | inactive: 2.14 |  | inactive: 1.32
